Experimental data from the supplement of paper PMC4996465.
Viability of KB3-1 and Nalm-6 cells after 48 h of drug alone (CellTiter-Glo), 11 doses over about 4.5 log units. % of DMSO wells, lower = more cell loss; AC50 from the fitted curve, lower = more potent. No active / inactive call. Nalm-6 was screened in two runs. AC50 is listed only for well-fitted inhibitory curves. KB3-1 is a HeLa-derived carcinoma line, Nalm-6 a B-cell precursor leukaemia line.

Legend:
KB3-1 [1] = assay: viability (% of DMSO control); higher = more viable cells
Description: (§1)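 Eleven-dose screen of the NCATS MIPE 3 library on cells without co-treatment; CellTiter-Glo after 48 h, as % of DMSO wells.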

Nalm-6 [2] = assay: as above
Description: as §1

KB3-1 [3] = assay: log AC50 of viability decrease (48 h) (log10 M); higher = less potent
Description: (§2)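 Eleven-dose screen of the NCATS MIPE 3 library on cells without co-treatment; CellTiter-Glo after 48 h. AC50 from the curve fit; only inhibitory curves of the better fit classes are listed.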

Nalm-6 [4] = assay: as above
Description: as §2

Row | Structure (SMILES) | viability (KB3-1 [1]; 0.00078 µM) [%] | viability (KB3-1 [1]; 0.00234 µM) [%] | viability (KB3-1 [1]; 0.00702 µM) [%] | viability (KB3-1 [1]; 0.0211 µM) [%] | viability (KB3-1 [1]; 0.0632 µM) [%] | viability (KB3-1 [1]; 0.19 µM) [%] | viability (KB3-1 [1]; 0.569 µM) [%] | viability (KB3-1 [1]; 1.71 µM) [%] | viability (KB3-1 [1]; 5.12 µM) [%] | viability (KB3-1 [1]; 15.4 µM) [%] | viability (KB3-1 [1]; 46.1 µM) [%] | viability (Nalm-6 [2]; run: 1, 0.00078 µM) [%] | viability (Nalm-6 [2]; run: 1, 0.00234 µM) [%] | viability (Nalm-6 [2]; run: 1, 0.00702 µM) [%] | viability (Nalm-6 [2]; run: 1, 0.0211 µM) [%] | viability (Nalm-6 [2]; run: 1, 0.0632 µM) [%] | viability (Nalm-6 [2]; run: 1, 0.19 µM) [%] | viability (Nalm-6 [2]; run: 1, 0.569 µM) [%] | viability (Nalm-6 [2]; run: 1, 1.71 µM) [%] | viability (Nalm-6 [2]; run: 1, 5.12 µM) [%] | viability (Nalm-6 [2]; run: 1, 15.4 µM) [%] | viability (Nalm-6 [2]; run: 1, 46.1 µM) [%] | viability (Nalm-6 [2]; run: 2, 0.00078 µM) [%] | viability (Nalm-6 [2]; run: 2, 0.00234 µM) [%] | viability (Nalm-6 [2]; run: 2, 0.00702 µM) [%] | viability (Nalm-6 [2]; run: 2, 0.0211 µM) [%] | viability (Nalm-6 [2]; run: 2, 0.0632 µM) [%] | viability (Nalm-6 [2]; run: 2, 0.19 µM) [%] | viability (Nalm-6 [2]; run: 2, 0.569 µM) [%] | viability (Nalm-6 [2]; run: 2, 1.71 µM) [%] | viability (Nalm-6 [2]; run: 2, 5.12 µM) [%] | viability (Nalm-6 [2]; run: 2, 15.4 µM) [%] | viability (Nalm-6 [2]; run: 2, 46.1 µM) [%] | log AC50 of viability decrease (KB3-1 [3]) | log AC50 of viability decrease (Nalm-6 [4]; run: 1) | log AC50 of viability decrease (Nalm-6 [4]; run: 2)
1 | Cc1nc(-c2ccc(-c3ccc(C(=O)N4CCc5cc6c(cc54)C4(CCN(C)CC4)CO6)cc3)c(C)c2)no1 | 97.4 | 98.1 | 95.8 | 100 | 101 | 94.7 | 93.3 | 99.4 | 101 | 87.4 | 0.488 | 97.6 | 103 | 94.5 | 74.9 | 60.4 | 3.61 | -1.05 | -1.76 | -2.1 | -2.05 | -2.25 | 76.1 | 82.4 | 99.6 | 102 | 102 | 105 | 112 | 108 | 103 | 84.4 | 1.51 | -4.58 | -7.13 | -4.63
2 | Cc1cc(Nc2cc(N3CCN(C)CC3)nc(/C=C/c3ccccc3)n2)n[nH]1 | 90.1 | 93.5 | 96.3 | 91 | 90.8 | 85.2 | 81.4 | 47.2 | 53.6 | 54.2 | 29.7 | 99.5 | 98.6 | 105 | 101 | 101 | 98.1 | 67.9 | 36.8 | 29 | 29.3 | 0.99 | 101 | 106 | 110 | 110 | 110 | 96 | 77.8 | 49.7 | 34.4 | 39.1 | 2.34 | -6.08 | -6.08 | -5.88
3 | CNC(=O)N1\N=C(\C2=CC=C(N)C=C2)C3=CC4=C(OCO4)C=C3CC1C (stereo not drawn) | 101 | 106 | 107 | 106 | 106 | 106 | 101 | 88.4 | 77.5 | 63 | 52.6 | 127 | 133 | 124 | 123 | 125 | 129 | 117 | 77 | 63.1 | 49.1 | 23.4 | 107 | 106 | 112 | 106 | 107 | 109 | 8.74 | 58.4 | 33.7 | 17.2 | 1.65 | -5.28 | -5.53 | 
4 | COc1ccc(-c2ccc3c(N4CCOCC4)nc(N4C[C@@H](C)O[C@@H](C)C4)nc3n2)cc1CO | 104 | 98.8 | 96.3 | 87.4 | 77.5 | 65.1 | 51.1 | 42 | 42.2 | 37 | 38.8 | 89.1 | 101 | 95 | 94.1 | 89.1 | 88.1 | 68.6 | 56 | 49.3 | 46.4 | 32.6 | 100 | 105 | 107 | 107 | 97.6 | 90.2 | 69.2 | 62.5 | 51.5 | 47.9 | 26.1 | -6.98 | -6.03 | -5.83
5 | COc1ncc(-c2ccc3nccc(-c4ccnnc4)c3c2)cc1NS(=O)(=O)c1ccc(F)cc1F | 83.2 | 81.1 | 71.3 | 59.5 | 52.3 | 45.6 | 47.2 | 45.8 | 47.1 | 43.1 | 8.09 | 62.3 | 55.6 | 48.4 | 47.6 | 45.6 | 40.6 | 40 | 26.4 | 20.3 | 13.2 | 1.57 | 72.1 | 64.2 | 53.6 | 52 | 52.3 | 38.4 | 35.7 | 28.1 | 18.4 | 14.7 | 1.17 | -6.63 | -5.48 | -6.38
6 | COc1cc2ncnc(-n3nc(-c4ccccn4)nc3N)c2cc1OC | 92.6 | 95.6 | 91.4 | 91.7 | 94.9 | 93.2 | 92.3 | 80 | 56.7 | 45.9 | 32.1 | 98 | 104 | 112 | 104 | 98 | 100 | 97.1 | 76.6 | 37.7 | 25.1 | 8.45 | 105 | 109 | 112 | 113 | 97.6 | 111 | 98.1 | 74.4 | 44.3 | 19.9 | 4.6 | -5.38 | -5.48 | -5.43
7 | COc1cc2nc(-c3ccc(N4CCN(C)CC4)cc3)nc(NCCN3CCOCC3)c2cc1OC | 88.6 | 88.2 | 92 | 90.2 | 87.6 | 90.1 | 71.4 | 61.1 | 58.6 | 51.4 | 5.32 | 94.6 | 96.6 | 101 | 104 | 73.7 | 98.6 | 81.9 | 58.5 | 63.2 | 31.5 | 2.03 | 106 | 100 | 104 | 108 | 104 | 101 | 82.6 | 66.2 | 21.8 | 5.3 | 3.62 | -4.73 | -4.93 | -5.63
8 | COc1cc(Oc2ccnc3cc(OC)c(OC)cc23)ccc1NC(=O)NC(C)c1nccs1 (stereo not drawn) | 100 | 106 | 104 | 106 | 108 | 103 | 107 | 98.8 | 99 | 91.9 | 61 | 86.4 | 96.8 | 106 | 108 | 105 | 122 | 125 | 112 | 109 | 97.6 | 48.2 | 109 | 110 | 124 | 108 | 113 | 117 | 112 | 116 | 110 | 96.3 | 72.5 | -4.68 |  | -4.78
9 | COC1=CC=C2[C@H]3CC[C@]4(C)[C@H](CC[C@H]4[C@@H]3CCC2=C1)NCCCCCCN5C(=O)\C=C/C5=O | 105 | 103 | 103 | 108 | 107 | 108 | 103 | 106 | 93.5 | 81.1 | 7.3 | 108 | 109 | 118 | 120 | 115 | 114 | 105 | 105 | 86.9 | 78.5 | 6.93 | 105 | 99.2 | 102 | 103 | 104 | 98.4 | 93 | 91.2 | 86.8 | 77.2 | 1.61 | -4.68 | -4.73 | -4.68
10 | COCC(=O)NC/C=C/c1ccc2ncnc(Nc3ccc(Oc4ccc(C)nc4)c(C)c3)c2c1 | 102 | 101 | 103 | 98.4 | 97.1 | 103 | 95.8 | 96.2 | 87.3 | 80.7 | 63.7 | 125 | 109 | 117 | 121 | 115 | 110 | 112 | 112 | 90.6 | 71.9 | 14.6 | 111 | 96.3 | 109 | 111 | 112 | 112 | 109 | 108 | 98.6 | 93.7 | 11.7 | -4.73 | -4.73 | -4.63
11 | C[C@@H](Oc1cc(-n2cnc3ccc(CN4CCN(C)CC4)cc32)sc1C(N)=O)c1ccccc1C(F)(F)F | 100 | 61 | 27.9 | 28.7 | 27.9 | 31.6 | 32.6 | 36.8 | 35.8 | 33.1 | 3.53 | 92.2 | 94.3 | 86.8 | 16.1 | 13.8 | 14.9 | 16.7 | 16.3 | 13.6 | 16.2 | 2.13 | 106 | 102 | 100 | 21.7 | 11.3 | 11.3 | 11.5 | 12.2 | 10.2 | 10.3 | 1.75 | -8.73 | -7.93 | -7.88
12 | C[N]1C=C(C=N1)C2=C3\C=N/NC(=O)C4=C3C(=CC(=C4)NC(=O)[C@H](N)C5CCCCC5)[NH]2 | 100 | 101 | 100 | 99.9 | 92.4 | 90.8 | 76.9 | 51.6 | 40.5 | 40.9 | 13.9 | 113 | 112 | 106 | 124 | 96.4 | 84.5 | 39.2 | 16.9 | 15.3 | 12.7 | 2.98 | 107 | 108 | 111 | 105 | 92.9 | 95.5 | 55.9 | 17.8 | 10 | 8.97 | 0.748 | -5.73 | -6.48 | -6.23
13 | NC(=O)Nc1cc(-c2ccc(CN3CCOCC3)c(F)c2)sc1C(=O)N[C@H]1CCCNC1 | 98.9 | 101 | 98.1 | 96.4 | 76.8 | 58.4 | 24.2 | 11.2 | 7.87 | 6.88 | 3.83 | 104 | 104 | 106 | 81.7 | 29.3 | 12.2 | 7.71 | 5.84 | 3.61 | 1.24 | -1.14 | 102 | 95.7 | 97.9 | 81 | 30.3 | 7.31 | 4.21 | 3.76 | 3.48 | 1.02 | -1.29 | -6.68 | -7.43 | -7.38
14 | Nc1nc(Nc2ccc([S+](N)(=O)[O-])cc2)nn1C(=O)c1c(F)cccc1F | 97.8 | 95.3 | 102 | 103 | 102 | 92.3 | 83.8 | 72.2 | 47.2 | 30.7 | 19.1 | 97.1 | 101 | 113 | 113 | 107 | 97.9 | 85.5 | 38.3 | 9.78 | 10.7 | 11.7 | 109 | 106 | 103 | 111 | 108 | 91.2 | 76.1 | 32 | 6.31 | 7.16 | 15.2 | -5.43 | -5.98 | -6.08
15 | O=C(C1CC1)N1CC[C@@H](Cn2c(-c3ccc(-c4ccc5occc5c4)cc3)nc3cnccc32)C1 | 108 | 106 | 108 | 113 | 110 | 113 | 107 | 103 | 100 | 88.7 | 73.5 | 124 | 120 | 124 | 116 | 112 | 120 | 112 | 103 | 99.5 | 87.2 | 13.2 | 114 | 110 | 109 | 114 | 112 | 108 | 116 | 101 | 98.3 | 82.2 | 20.9 | -4.78 | -4.68 | -4.68
